Consider 59 molecules from the supplement of paper PMC9135407.

For the assay, the system named is primary human hepatic stellate cells (donor 1). Kind of assay: scaled lipid accumulation score (0 = DMSO-like, 1 = nortriptyline-like); higher = stronger HSC inactivation (lipid re-accumulation), active = hit call of the paper. To be noted: 48 h.
[1] abbreviates: library stock concentration: 10 mM.
Setting [2] is: library stock concentration: 3.33 mM.
[3] abbreviates: library stock concentration: 2.9 mM.
The mark [4] stands for this setting: library stock concentration: 80 uM.
Setting [5] is: library stock concentration: 400 uM.
The mark [6] stands for this setting: library stock concentration: 2 mM.
The mark [7] stands for this setting: library stock concentration: 1 mM.

Where “and” joins values, the source holds several entries; their conditions need not be identical. Identical values can stand only once. Counter-ions that a name gives are not always drawn. In all, about 5,800 compounds went through this assay and about 620 (11%) showed activity.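 Rule for the calls: active = score above a cut-off or among the top three wells of a plate; in these data no inactive exceeds 0.85.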 The list shows a part of the results, in another mix than the full data. A value given as a limit tells only on which side of the number the result lay.

As for `CN1CCC(NC(=O)C2=CC(=C3C(O)=CC(=O)C=C3Oc3ccc([N+](=O)[O-])cc3)ON2)CC1`, the “scaled lipid accumulation score” value under setting [1] is active: 0.976.

Regarding `Nc1ccc2c3c(cccc13)C(=O)NC2=O` [4-Amino-1,8-naphthalimide], under setting [1], the “scaled lipid accumulation score” value was active: 0.886.

For the molecule `CN1CCN(CCCN2c3ccccc3Sc3ccc(C(F)(F)F)cc32)CC1` [Trifluoperazine 2HCl], the “scaled lipid accumulation score” value runs as follows: under setting [2], inactive: ≤ 0; under setting [1], inactive: 0.815.

As to `CN1CCN(CCCN2c3ccccc3Sc3ccc(C(F)(F)F)cc32)CC1` [Trifluoperazine dihydrochloride], the “scaled lipid accumulation score” value was inactive: 0.393.

Take `CN1CCN(CCCN2c3ccccc3Sc3ccc(C(F)(F)F)cc32)CC1`: the “scaled lipid accumulation score” value under setting [1] was active: 0.99.

Take `CN1CCN(CCCN2c3ccccc3Sc3ccc(C(F)(F)F)cc32)CC1` [Trifluoperazine]: the “scaled lipid accumulation score” value (library stock concentration: 4.9 mM) is inactive: 0.434.

As for `CN1CCN(CCCN2c3ccccc3Sc3ccc(C(F)(F)F)cc32)CC1` [Trifluoperazine hydrochloride], the “scaled lipid accumulation score” value under setting [1] is inactive: 0.396.

As for `CN(C)CCN1C(=O)c2ccccc2N(C)c2ccccc21` [Dibenzepine HCl], where the note is “library stock concentration: 6.8 mM”, the “scaled lipid accumulation score” value was inactive: ≤ 0.

On to `COc1ccc(OC)c(C(O)CNC(=O)CN)c1` (stereo not drawn) [Pro-Amatine], for which the “scaled lipid accumulation score” value under setting [1] was inactive: ≤ 0.

As to `COc1ccc(OC)c(C(O)CNC(=O)CN)c1` (stereo not drawn) [Midodrine hydrochloride], the “scaled lipid accumulation score” value was inactive: ≤ 0. Moreover, the “scaled lipid accumulation score” value (library stock concentration: 6.9 mM) was inactive: 0.005. Under setting [1], the “scaled lipid accumulation score” value is inactive: ≤ -0.027.

`CC(S)C(=O)NCC(=O)O` (stereo not drawn) [Tiopronin]: the “scaled lipid accumulation score” value was inactive: ≤ 0 under setting [2] and inactive: ≤ 0 under setting [1].

Consider `CC(S)C(=O)NCC(=O)O` (stereo not drawn), for which the “scaled lipid accumulation score” value under setting [1] is inactive: ≤ 0.

As for `CNC[C@H](O)c1ccc(O)c(O)c1` [(?)-Epinephrine hydrochloride], under setting [1], the “scaled lipid accumulation score” value is inactive: 0.578.

Take `CNC[C@H](O)c1ccc(O)c(O)c1` [Adrenaline bitartrate]: the “scaled lipid accumulation score” value (library stock concentration: 6 mM) was inactive: ≤ 0 and the “scaled lipid accumulation score” value under setting [1] was inactive: ≤ 0.

Consider `CNC[C@H](O)c1ccc(O)c(O)c1` [Epinephrine Bitartrate], for which the “scaled lipid accumulation score” value under setting [2] was inactive: ≤ 0 and the “scaled lipid accumulation score” value under setting [1] is inactive: ≤ 0.

Turning to `CNC[C@H](O)c1ccc(O)c(O)c1` [(-)-Epinephrine bitartrate], the “scaled lipid accumulation score” value under setting [1] was inactive: 0.396.

Turning to `CNC[C@H](O)c1ccc(O)c(O)c1` [Epinephrine HCl], the “scaled lipid accumulation score” value is inactive: 0.007 under setting [2] and inactive: ≤ 0 under setting [1].

Consider `N#Cc1cc2c(OCC(O)CN3CCN(C(c4ccccc4)c4ccccc4)CC3)cccc2[nH]1` (stereo not drawn), for which the “scaled lipid accumulation score” value (library stock concentration: 10.7 mM) is inactive: 0.795.

With `CC(C)(C)NCC(O)COc1cccc2c1CCC(=O)N2` (stereo not drawn) [Carteolol HCl], the “scaled lipid accumulation score” value under setting [2] was inactive: ≤ 0 and the “scaled lipid accumulation score” value under setting [1] was inactive: ≤ -0.001.

For `CC(C)(C)NCC(O)COc1cccc2c1CCC(=O)N2` (stereo not drawn) [Carteolol hydrochloride], the “scaled lipid accumulation score” value was inactive: ≤ 0.

For the molecule `C=C1c2c(Cl)ccc(O)c2C(=O)C2=C(O)[C@]3(O)C(=O)C(C(N)=O)=C(O)[C@@H](N(C)C)[C@@H]3[C@@H](O)[C@H]12.O=C(O)c1cc(S(=O)(=O)O)ccc1O` [Meclocycline sulfosalicylate], the “scaled lipid accumulation score” value is inactive: 0.032. Besides, the “scaled lipid accumulation score” value under setting [3] was inactive: ≤ 0. For the same molecule, the “scaled lipid accumulation score” value under setting [1] is inactive: ≤ 0.

Take `CC(C)C[C@H](NC(=O)[C@H](O)[C@H](N)Cc1ccccc1)C(=O)O` [Epibestatin hydrochloride]: the “scaled lipid accumulation score” value under setting [1] was inactive: ≤ -0.07.

As to `CNC(=O)c1cc(Oc2ccc(NC(=O)Nc3ccc(Cl)c(C(F)(F)F)c3)c(F)c2)ccn1` [Regorafenib], the “scaled lipid accumulation score” value under setting [4] is inactive: ≤ -0.016, the “scaled lipid accumulation score” value under setting [5] was inactive: 0.033, the “scaled lipid accumulation score” value under setting [6] was inactive: ≤ -0.016 and the “scaled lipid accumulation score” value under setting [1] is inactive: ≤ -0.016.

Turning to `CNC(=O)c1cc(Oc2ccc(NC(=O)Nc3ccc(Cl)c(C(F)(F)F)c3)c(F)c2)ccn1` [Regorafenib (BAY 73-4506)], the “scaled lipid accumulation score” value reads like this: under setting [2], inactive: ≤ 0; under setting [1], inactive: ≤ 0.

For the molecule `CN(C)CC(=O)Nc1ccc2[nH]c(=O)c3ccccc3c2c1`, the “scaled lipid accumulation score” value by setting is: under setting [2], inactive: ≤ 0 and inactive: ≤ -0.009; under setting [1], inactive: 0.59 and inactive: 0.025.

Consider `C/C=C1\C(=O)C[C@H]2[C@@H]3CCC4=CC(=O)CC[C@]4(C)[C@H]3CC[C@]12C` [Guggulsterone], for which the “scaled lipid accumulation score” value under setting [1] is inactive: 0.14.

`CN1C2CCC1CC(OC(c1ccccc1)c1ccccc1)C2.CS(=O)(=O)O` (stereo not drawn) [Benztropine mesylate]: under setting [1], the “scaled lipid accumulation score” value was active: 1.05.

In the case of `COc1ccc2c(c1OC)C(=O)O[C@@H]2[C@H]1c2c(cc3c(c2OC)OCO3)CCN1C` [Noscapine], the “scaled lipid accumulation score” value is inactive: ≤ 0.

For the molecule `COc1ccc2c(c1OC)C(=O)O[C@@H]2[C@H]1c2c(cc3c(c2OC)OCO3)CCN1C` [Noscapine hydrchloride], the “scaled lipid accumulation score” value under setting [1] is inactive: ≤ -0.055.

As to `COc1ccc2c(c1OC)C(=O)O[C@@H]2[C@H]1c2c(cc3c(c2OC)OCO3)CCN1C` [Noscapine hydrochloride], the “scaled lipid accumulation score” value runs as follows: (library stock concentration: 4.4 mM) inactive: 0.008; under setting [1], inactive: 0.011 and inactive: 0.074.

Take `CC(=O)NCCCS(=O)(=O)O`: the “scaled lipid accumulation score” value under setting [1] was inactive: ≤ 0.

As to `Cc1ccc(C(=O)Nc2cccc(C(F)(F)F)c2)cc1-c1ccc2nc(NCCN3CCOCC3)ncc2c1`, the “scaled lipid accumulation score” value runs as follows: under setting [5], inactive: ≤ -0.005; under setting [6], inactive: 0.748.

In the case of `O=C(O)c1cc(/N=N/c2ccc(O)c(C(=O)O)c2)ccc1O`, the “scaled lipid accumulation score” value under setting [1] was inactive: ≤ 0.

In the case of `O=C(O)c1cc(/N=N/c2ccc(O)c(C(=O)O)c2)ccc1O` [Olsalazine Sodium], the “scaled lipid accumulation score” value runs as follows: under setting [2], inactive: ≤ 0; under setting [1], inactive: 0.208.

As for `CCCCCCCCCCCCCCCC(=O)OC(CC(=O)O)C[N+](C)(C)C` (racemic) [Palmitoyl-DL-Carnitine chloride], the “scaled lipid accumulation score” value under setting [1] was inactive: 0.446.

On to `CCCCCC(=O)CC[C@H]1C=CC(=O)[C@@H]1C/C=C\CCCC(=O)O` [13,14-dihydro-15-keto Prostaglandin A2], for which the “scaled lipid accumulation score” value under setting [7] is inactive: ≤ 0.

Turning to `CCOC(=O)O[C@]1(C(=O)COC(=O)CC)CC[C@H]2[C@@H]3CCC4=CC(=O)C=C[C@]4(C)[C@H]3[C@@H](O)C[C@@]21C` [Prednicarbate], the “scaled lipid accumulation score” value is inactive: ≤ 0.

On to `Cc1nc2cc3nc(-c4cccs4)cnc3cc2n1C`, for which the “scaled lipid accumulation score” value under setting [2] was inactive: ≤ 0.

In the case of `COc1cc2ncnc(Nc3cccc(Cl)c3)c2cc1OC` [Tyrphostin AG 1478], the “scaled lipid accumulation score” value under setting [1] was active: 0.882.

Take `O=C(O)[C@H](O)c1ccccc1` [R-(-)-Mandelic Acid]: under setting [7], the “scaled lipid accumulation score” value was inactive: 0.02.

Turning to `C(=C\c1ccccc1)/CN1CCN(C(c2ccccc2)c2ccccc2)CC1` [Cinnarizine], the “scaled lipid accumulation score” value was inactive: ≤ 0. Moreover, the “scaled lipid accumulation score” value under setting [1] is inactive: 0.354.

With `C[C@]1(O)C[C@@H](c2nc(-c3ccc4ccc(-c5ccccc5)nc4c3)c3c(N)nccn32)C1`, the “scaled lipid accumulation score” value was inactive: 0.05 under setting [4], inactive: ≤ -0.009 under setting [5], inactive: ≤ -0.009 under setting [6] and inactive: ≤ -0.009 under setting [1].

For the molecule `C[C@]1(O)C[C@@H](c2nc(-c3ccc4ccc(-c5ccccc5)nc4c3)c3c(N)nccn32)C1` [OSI-906 (Linsitinib)], the “scaled lipid accumulation score” value is, setting by setting: under setting [2], inactive: ≤ 0; under setting [1], inactive: ≤ 0.

On to `CO[C@H]1/C=C/O[C@@]2(C)Oc3c(C)c(O)c4c(O)c(cc(O)c4c3C2=O)NC(=O)/C(C)=C\C=C\[C@H](C)[C@H](O)[C@@H](C)[C@@H](O)[C@@H](C)[C@H](OC(C)=O)[C@@H]1C` [Rifamycin sv], for which the “scaled lipid accumulation score” value under setting [3] is inactive: ≤ 0.

As for `C[C@@H]1CCO[C@H]2Cn3cc(C(=O)NCc4ccc(F)cc4F)c(=O)c(O)c3C(=O)N12`, the “scaled lipid accumulation score” value was inactive: ≤ 0 under setting [2] and inactive: 0.05 under setting [1].

On to `O=C(O)c1cc(=O)cc(C(=O)O)[nH]1` [Chelidamic acid], for which, under setting [1], the “scaled lipid accumulation score” value was inactive: ≤ 0.

As for `COC(=O)[C@H]1[C@H]2C[C@@H]3c4[nH]c5cc(OC)ccc5c4CCN3C[C@H]2C[C@@H](OC(=O)c2cc(OC)c(OC)c(OC)c2)[C@@H]1OC` [Reserpine], the “scaled lipid accumulation score” value under setting [1] is active: 0.944.

In the case of `OC[C@H]1O[C@H](O[C@]2(CCl)O[C@H](CCl)[C@@H](O)[C@@H]2O)[C@H](O)[C@@H](O)[C@H]1Cl` [Sucralose], the “scaled lipid accumulation score” value under setting [2] was inactive: ≤ 0, the “scaled lipid accumulation score” value (library stock concentration: 5 mM) is inactive: ≤ 0 and the “scaled lipid accumulation score” value under setting [1] is inactive: ≤ -0.001.

As to `CNC(=O)c1cc(Oc2ccc(NC(=O)Nc3cc(C(C)(C)C)nn3-c3ccc4ncccc4c3)c(F)c2)ccn1`, the “scaled lipid accumulation score” value reads like this: under setting [4], inactive: ≤ -0.016; under setting [5], inactive: ≤ -0.016; under setting [6], inactive: ≤ -0.016; under setting [1], inactive: ≤ -0.016.

As for `CNC(=O)c1cc(Oc2ccc(NC(=O)Nc3cc(C(C)(C)C)nn3-c3ccc4ncccc4c3)c(F)c2)ccn1` [DCC-2036 (Rebastinib)], the “scaled lipid accumulation score” value is inactive: 0.04 under setting [2] and inactive: 0.032 under setting [1].

Regarding `CC(C)C[C@H](NC(=O)[C@@H](NC(=O)c1cccc(-c2ccccc2)n1)[C@@H](C)O)B(O)O`, the “scaled lipid accumulation score” value by setting is: under setting [2], inactive: 0.572; under setting [1], inactive: 0.748.

As to `COc1ccc2c(c1)c(CC(=O)O)c(C)n2C(=O)c1ccc(Cl)cc1` [Indomethacin], the “scaled lipid accumulation score” value is inactive: 0.046. Besides, the “scaled lipid accumulation score” value under setting [7] was inactive: 0.012. Further, the “scaled lipid accumulation score” value under setting [2] was inactive: ≤ 0. Moreover, the “scaled lipid accumulation score” value under setting [1] is inactive: ≤ 0 and inactive: ≤ -0.055 and inactive: 0.004. Moreover, under “library stock concentration: 10.4 mM”, the “scaled lipid accumulation score” value is inactive: ≤ 0. The “scaled lipid accumulation score” value (library stock concentration: 14 mM) was inactive: 0.02.

Turning to `NCc1cccc2ccncc12` [8-Isoquinoline methanamine (hydrochloride)], the “scaled lipid accumulation score” value under setting [7] was inactive: 0.003.

For the molecule `Nc1nc2ccc(OC(F)(F)F)cc2s1` [Riluzole], the “scaled lipid accumulation score” value under setting [2] was inactive: ≤ 0, the “scaled lipid accumulation score” value (library stock concentration: 9.6 mM) is inactive: ≤ 0 and the “scaled lipid accumulation score” value under setting [1] is inactive: ≤ 0.

As for `Nc1nc2ccc(OC(F)(F)F)cc2s1` [Riluzole hydrochloride], the “scaled lipid accumulation score” value was inactive: 0.26. Further, the “scaled lipid accumulation score” value under setting [1] is inactive: 0.017.

In the case of `Oc1cc(O)c2c(c1)O[C@H](c1ccc(O)c(O)c1)[C@H](O)C2` [Epicatechin-(-)], the “scaled lipid accumulation score” value was inactive: ≤ 0.

For `Oc1cc(O)c2c(c1)O[C@H](c1ccc(O)c(O)c1)[C@H](O)C2` [Epicatechin], the “scaled lipid accumulation score” value under setting [1] was inactive: 0.066.

On to `CCOC(=O)C1(CCCCCCOc2ccc(Cl)cc2)CO1` (stereo not drawn), for which the “scaled lipid accumulation score” value under setting [1] was inactive: ≤ 0.

Consider `CCCCC[C@H](O)/C=C/[C@H]1C(=O)C[C@H](O)[C@@H]1C/C=C\CCCC(=O)OCC(O)CO` (stereo partly drawn) [Prostaglandin D2-1-glyceryl ester], for which, under setting [7], the “scaled lipid accumulation score” value was inactive: ≤ 0.
